Experimental data published in the supplement of paper PMC10126150.
Sequences with one replicate were seen in a single cluster, so their values are uncertain.

Test system: ATP
Test: switch fluorescence ratio, 500 uM ATP over buffer (Cy3 cluster intensity, sum of 5 cycles each) (fold (ratio)); higher = stronger signal-on switching upon ATP binding; sequences stand for … in TCGTCGGCAGCGTCAGATGTGTATAAGAGACAGTTTTTTTTTTTTTTTTTTTTTTTTT…TC
Details: aptamer strand: ATP DNA aptamer (quencher-CACCTGGGGGAGTATTGCGGAGGAAGG + anchor), 100 nM annealed; ATP concentration: 500 uM; one replicate
How it was run: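 Clusters carrying Cy3-labelled switching strands on a modified Illumina MiSeq flow-cell were annealed to 100 nM quencher-labelled ATP aptamer and imaged in selection buffer. They were imaged again after 15 min with 500 uM ATP at 22 °C, over five buffer/ATP cycles with NaOH stripping and re-annealing in between. For each cluster, the fluorescence ratio is the summed Cy3 intensity of the target cycles divided by that of the buffer cycles, averaged per switch-domain sequence. Clusters outside 100-1000 RFU were left out.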
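Further: ATP exposure 15 min at 22 °C before imaging.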

Which switch fluorescence ratio does the source give for ATCTCCCGGG here?
The switch fluorescence ratio was 1.37.

How did the switch fluorescence ratio turn out when ATCTCGGCCT was run?
Its switch fluorescence ratio is 1.03.

ATCTGAAAAA was tested. Which switch fluorescence ratio did it give?
Its switch fluorescence ratio is 0.978.

How did the switch fluorescence ratio turn out when ATCTGAGATT was run?
Its switch fluorescence ratio is 1.03.

ATCTGATTCC was tested. Which switch fluorescence ratio did it give?
Its switch fluorescence ratio is 1.32.

With ATCTGCCAAT as the sequence, how does the switch fluorescence ratio read?
Its switch fluorescence ratio is 1.25.

ATCTGCTCCG was tested. Which switch fluorescence ratio did it give?
Its switch fluorescence ratio is 1.11.

ATCTGGCCGC was tested. Which switch fluorescence ratio did it give?
Its switch fluorescence ratio is 1.09.

ATCTTAAAGC was tested. Which switch fluorescence ratio did it give?
Its switch fluorescence ratio is 1.01.

ATCTTCAGCA was tested. Which switch fluorescence ratio did it give?
The switch fluorescence ratio was 1.09.

ATCTTCATAG was tested. Which switch fluorescence ratio did it give?
Its switch fluorescence ratio is 0.986.

For ATCTTCGTTC, which switch fluorescence ratio is on record?
The switch fluorescence ratio was 1.02.

How did the switch fluorescence ratio turn out when ATCTTGGGT was run?
Its switch fluorescence ratio is 1.01.

With ATCTTGGTAC as the sequence, how does the switch fluorescence ratio read?
The switch fluorescence ratio was 0.995.

Which switch fluorescence ratio does the source give for ATCTTTTCTG here?
The switch fluorescence ratio was 1.02.

Which switch fluorescence ratio does the source give for ATCTTTTGTG here?
Its switch fluorescence ratio is 0.933.

For ATGAAACGGG, which switch fluorescence ratio is on record?
Its switch fluorescence ratio is 1.05.

How did the switch fluorescence ratio turn out when ATGAAGAAGT was run?
The switch fluorescence ratio was 0.989.

Which switch fluorescence ratio does the source give for ATGAATTGTG here?
The switch fluorescence ratio was 1.03.

For ATGAATTTA, which switch fluorescence ratio is on record?
The switch fluorescence ratio was 0.998.

For ATGACATGAG, which switch fluorescence ratio is on record?
The switch fluorescence ratio was 0.985.

For ATGACCCTGC, which switch fluorescence ratio is on record?
The switch fluorescence ratio was 1.03.

How did the switch fluorescence ratio turn out when ATGACGTGTT was run?
Its switch fluorescence ratio is 0.962.

Which switch fluorescence ratio does the source give for ATGAGAAGT here?
The switch fluorescence ratio was 0.984.

How did the switch fluorescence ratio turn out when ATGAGATATT was run?
The switch fluorescence ratio was 0.975.

How did the switch fluorescence ratio turn out when ATGAGATGG was run?
The switch fluorescence ratio was 0.996.

With ATGAGCGGAG as the sequence, how does the switch fluorescence ratio read?
Its switch fluorescence ratio is 1.

For ATGAGCTTGT, which switch fluorescence ratio is on record?
The switch fluorescence ratio was 1.59.

For ATGAGTAAAT, which switch fluorescence ratio is on record?
The switch fluorescence ratio was 1.

ATGAGTACTG was tested. Which switch fluorescence ratio did it give?
The switch fluorescence ratio was 1.07.

For ATGAGTGAAC, which switch fluorescence ratio is on record?
Its switch fluorescence ratio is 0.89.

ATGAGTTC was tested. Which switch fluorescence ratio did it give?
The switch fluorescence ratio was 1.02.

ATGAGTTT was tested. Which switch fluorescence ratio did it give?
The switch fluorescence ratio was 0.953.

With ATGATAAATC as the sequence, how does the switch fluorescence ratio read?
Its switch fluorescence ratio is 0.994.

Which switch fluorescence ratio does the source give for ATGATAACGT here?
The switch fluorescence ratio was 1.01.

With ATGATACCGT as the sequence, how does the switch fluorescence ratio read?
Its switch fluorescence ratio is 0.969.

With ATGATAGCGC as the sequence, how does the switch fluorescence ratio read?
The switch fluorescence ratio was 1.01.

For ATGATCGGGG, which switch fluorescence ratio is on record?
Its switch fluorescence ratio is 0.967.

With ATGATGCTGA as the sequence, how does the switch fluorescence ratio read?
The switch fluorescence ratio was 1.02.

With ATGATGGCTA as the sequence, how does the switch fluorescence ratio read?
The switch fluorescence ratio was 0.981.

With ATGATGTTCT as the sequence, how does the switch fluorescence ratio read?
The switch fluorescence ratio was 1.01.

With ATGCACAGCG as the sequence, how does the switch fluorescence ratio read?
Its switch fluorescence ratio is 0.953.

For ATGCATCCA, which switch fluorescence ratio is on record?
The switch fluorescence ratio was 0.964.

ATGCATGTC was tested. Which switch fluorescence ratio did it give?
Its switch fluorescence ratio is 1.02.

For ATGCCACCCG, which switch fluorescence ratio is on record?
Its switch fluorescence ratio is 1.05.

ATGCCCAACC was tested. Which switch fluorescence ratio did it give?
The switch fluorescence ratio was 1.03.

Which switch fluorescence ratio does the source give for ATGCCCATCT here?
The switch fluorescence ratio was 1.03.

How did the switch fluorescence ratio turn out when ATGCCGACGC was run?
Its switch fluorescence ratio is 1.18.

ATGCCGCACG was tested. Which switch fluorescence ratio did it give?
Its switch fluorescence ratio is 1.05.

Which switch fluorescence ratio does the source give for ATGCCGCCGA here?
The switch fluorescence ratio was 1.01.

How did the switch fluorescence ratio turn out when ATGCCGTGTT was run?
Its switch fluorescence ratio is 1.05.

Which switch fluorescence ratio does the source give for ATGCCTATTT here?
The switch fluorescence ratio was 1.02.

ATGCGACTTT was tested. Which switch fluorescence ratio did it give?
Its switch fluorescence ratio is 1.03.

With ATGCGAGGA as the sequence, how does the switch fluorescence ratio read?
Its switch fluorescence ratio is 1.05.

ATGCGCCGTT was tested. Which switch fluorescence ratio did it give?
The switch fluorescence ratio was 1.03.

Which switch fluorescence ratio does the source give for ATGCGCCTCT here?
Its switch fluorescence ratio is 1.05.

With ATGCGGGAA as the sequence, how does the switch fluorescence ratio read?
The switch fluorescence ratio was 1.03.

ATGCGTAAAT was tested. Which switch fluorescence ratio did it give?
Its switch fluorescence ratio is 0.961.

Which switch fluorescence ratio does the source give for ATGCGTTGTG here?
The switch fluorescence ratio was 0.989.

ATGCGTTTC was tested. Which switch fluorescence ratio did it give?
The switch fluorescence ratio was 1.07.

With ATGCTAAGGG as the sequence, how does the switch fluorescence ratio read?
The switch fluorescence ratio was 0.948.

ATGCTAATAA was tested. Which switch fluorescence ratio did it give?
Its switch fluorescence ratio is 1.01.

For ATGCTCGCTC, which switch fluorescence ratio is on record?
The switch fluorescence ratio was 0.979.

ATGCTGAAA was tested. Which switch fluorescence ratio did it give?
The switch fluorescence ratio was 0.981.

How did the switch fluorescence ratio turn out when ATGCTTCAAC was run?
The switch fluorescence ratio was 1.

With ATGCTTTCAC as the sequence, how does the switch fluorescence ratio read?
Its switch fluorescence ratio is 1.03.

With ATGCTTTTAA as the sequence, how does the switch fluorescence ratio read?
Its switch fluorescence ratio is 0.973.

Which switch fluorescence ratio does the source give for ATGGAAGCCC here?
The switch fluorescence ratio was 1.

Which switch fluorescence ratio does the source give for ATGGAATCTC here?
Its switch fluorescence ratio is 1.03.

ATGGACGTCA was tested. Which switch fluorescence ratio did it give?
The switch fluorescence ratio was 0.994.

ATGGAGGTT was tested. Which switch fluorescence ratio did it give?
The switch fluorescence ratio was 0.946.

For ATGGATATTG, which switch fluorescence ratio is on record?
Its switch fluorescence ratio is 0.966.

How did the switch fluorescence ratio turn out when ATGGATCGAC was run?
Its switch fluorescence ratio is 0.991.

ATGGATGTCC was tested. Which switch fluorescence ratio did it give?
Its switch fluorescence ratio is 1.05.

Which switch fluorescence ratio does the source give for ATGGCAACGT here?
Its switch fluorescence ratio is 1.

ATGGCAGTAT was tested. Which switch fluorescence ratio did it give?
The switch fluorescence ratio was 0.995.

For ATGGCCGCTA, which switch fluorescence ratio is on record?
Its switch fluorescence ratio is 1.14.

With ATGGCCTGCT as the sequence, how does the switch fluorescence ratio read?
Its switch fluorescence ratio is 1.01.

How did the switch fluorescence ratio turn out when ATGGCGAGG was run?
Its switch fluorescence ratio is 0.954.

Which switch fluorescence ratio does the source give for ATGGCGCGCA here?
The switch fluorescence ratio was 1.07.

ATGGCGGAT was tested. Which switch fluorescence ratio did it give?
The switch fluorescence ratio was 1.09.

For ATGGCGGCTG, which switch fluorescence ratio is on record?
The switch fluorescence ratio was 0.978.

With ATGGCTAGTG as the sequence, how does the switch fluorescence ratio read?
Its switch fluorescence ratio is 0.943.

How did the switch fluorescence ratio turn out when ATGGGAATAA was run?
The switch fluorescence ratio was 1.05.

ATGGGATTAT was tested. Which switch fluorescence ratio did it give?
The switch fluorescence ratio was 0.994.

For ATGGGCAAAG, which switch fluorescence ratio is on record?
The switch fluorescence ratio was 0.987.

With ATGGGCATAA as the sequence, how does the switch fluorescence ratio read?
Its switch fluorescence ratio is 1.04.

How did the switch fluorescence ratio turn out when ATGGGCCTGT was run?
The switch fluorescence ratio was 0.976.

With ATGGGCTGCA as the sequence, how does the switch fluorescence ratio read?
Its switch fluorescence ratio is 1.05.

For ATGGGGTTTA, which switch fluorescence ratio is on record?
The switch fluorescence ratio was 0.99.

Which switch fluorescence ratio does the source give for ATGGTAAAGT here?
The switch fluorescence ratio was 0.966.

For ATGGTAGGGC, which switch fluorescence ratio is on record?
The switch fluorescence ratio was 0.966.

For ATGGTAGGTC, which switch fluorescence ratio is on record?
The switch fluorescence ratio was 0.965.

Which switch fluorescence ratio does the source give for ATGGTAGTTT here?
The switch fluorescence ratio was 0.975.

Which switch fluorescence ratio does the source give for ATGGTATTAC here?
The switch fluorescence ratio was 1.06.

How did the switch fluorescence ratio turn out when ATGGTCCAAT was run?
The switch fluorescence ratio was 0.966.

How did the switch fluorescence ratio turn out when ATGGTCCATA was run?
Its switch fluorescence ratio is 1.03.

Which switch fluorescence ratio does the source give for ATGGTCGAAC here?
The switch fluorescence ratio was 0.953.

Which switch fluorescence ratio does the source give for ATGGTCGGTT here?
Its switch fluorescence ratio is 0.977.

With ATGGTGAATA as the sequence, how does the switch fluorescence ratio read?
Its switch fluorescence ratio is 1.01.
